According to PubChem BioAssay (NCATS):
“And” between values parts separate entries of the source, which are not always exact repeats. Identical values can stand only once. The shares of active, inactive and inconclusive entries below differ from those in the screen. A potency beside an inconclusive call is a rough fit, not a confirmed value. The source made the active and inactive calls. Calls come from the whole dose curve; as a rule, active = well fitted inhibition curve with a large enough effect; inconclusive = small, poorly fitted or top-dose-only effect; inactive = no such curve, though single readings can be large or run the other way.

Assay: NS1 protein of Zika virus - qHTS assay to identify small molecule inhibitors in human HEK 293 cells (AID 1347053); note: nearly all actives have a fitted effect of over 55% in size;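 for activity change, negative = inhibition: plate controls were infected untreated cells for no effect and uninfected cells for full effect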
Details: HEK293 ZIKV MR766 infection, NS1 TR-FRET, 24 h; series mostly up to 46.1 µM; activity change, negative = inhibition: at the top concentration
Description: National Center for Advancing Translational Sciences [NCATS]
Johns Hopkins University School of Medicine
The non-structural 1 (NS1) protein of zika virus is known to associate with the viral replication complex. This cell-based TR-FRET ZIKV NS-1 assay measures the increased NS-1 protein in human HEK 293 cells after a 24-hour Zika virus infection by a TR-FRET assay readout. A decrease in the Time-resolved fluorescence energy transfer (TR-FRET) signal in this assay by small molecule treatment indicates an inhibitory effect of the small molecule on the expression of Zika virus NS1 correlating with Zika virus replication.
HEK 293 cells were cultured in EMEM (ATCC, Cat. # 30-2003) medium with 10% fetal bovine serum (GE healthcare Life Sciences, Cat. # SH30071.03), and 1% Pen/Strep (Gibco, Cat. # 15140-122). Cells were seeded in the assay plate and incubated at 37 C with 5% CO2 for 20 hours. Compounds were added to cells and incubated for one hour before addition of ZIKV MR766 strain solution to cells (MOI = 0.5). After an incubation at 37 C for 24 hours, the reagent mixture of TR-FRET ZIKV NS1 assay using two anti-ZIKV NS1 antibodies was added to assay plates. The TR-FRET signals in assay plates were measured using an Envision plate reader (PerkinElmer). Data were normalized by using the cell-containing wells without ZIKV as a negative control (0% NS-1) and wells containing ZIKV infected cells as a positive control (100% NS-1 level).
Potency is the fitted concentration of half-maximal effect; tags give direction and shape of the fitted curve.

Structure (SMILES)	activity change, negative = inhibition	Potency
CCC(CC)[C@H](NC(C)=O)[C@@H]1[C@H](O)[C@@H](C(=O)O)C[C@@H]1N=C(N)N	inactive: -9%	
Cc1ccc(S(=O)(=O)/C=C/C#N)cc1		inconclusive: 35.5 µM [inhibitor, single point]
O=C(c1ccc(F)c(F)c1Nc1ccc(I)cc1F)N1CC(O)([C@H]2CCCCN2)C1		inconclusive: 29.6 µM [inhibitor, single point]
Cc1ccc(NC(=O)c2ccc(CN3CCN(C)CC3)cc2)cc1Nc1nccc(-c2cccnc2)n1		inconclusive: 29.6 µM [inhibitor, single point]
CCC(C)SSc1ncc[nH]1 (stereo not given)		inconclusive: 37.2 µM [inhibitor, single point]
O=Nc1c(-c2c(O)[nH]c3ccccc23)[nH]c2ccccc12		inconclusive: 35.5 µM [inhibitor, single point]
Cc1ccccc1C(C(=O)NC1CCCC1)N(C(=O)Cn1cnc2ccccc21)c1cccc(F)c1 (stereo not given)		inconclusive: 33.2 µM [inhibitor, single point]
COc1cc2nc(N3CCCN(C)CC3)nc(NC3CCN(Cc4ccccc4)CC3)c2cc1OC		inconclusive: 37.2 µM [inhibitor, single point] and inconclusive: 35.5 µM [inhibitor, single point]
Oc1ccc(C2=Cc3ccc(O)cc3OC2)cc1		active: 10.5 µM
CS(=O)c1ccc(-c2nc(-c3ccc(F)cc3)c(-c3ccncc3)[nH]2)cc1 (stereo not given)		inconclusive: 67.9 µM [inhibitor, single point]
N#CC1(c2ccc(NC(=O)c3cccnc3NCc3ccncc3)cc2)CCCC1	inactive: 1.85%	
COc1cc2c(Oc3ccc(NC(=O)C4(C(=O)Nc5ccc(F)cc5)CC4)cc3F)ccnc2cc1OCCCN1CCOCC1		inconclusive: 33.2 µM [inhibitor, single point]
Oc1c(Br)cc(Br)c2cccnc12		inconclusive: 35.5 µM [inhibitor, partial curve, poor fit]
CC1(C)OC2=C(C(=O)c3ccccc3C2=O)[C@H](NCc2ccccc2)[C@H]1O		inconclusive: 37.2 µM [inhibitor, single point]
Clc1ccccc1-c1nc(-c2ccncc2)no1	inactive: 4.96%	
CC(C)(O)c1cc2nc(-c3cnc(N)nc3)nc(N3CCOCC3)c2s1		inconclusive: 2.96 µM [inhibitor, full curve]
Oc1cc(O)cc(C=Cc2ccc(O)c(O)c2)c1		inconclusive: 37.2 µM [inhibitor, single point]
NC(=O)c1cccc2[nH]c(-c3ccc([C@H]4CCCN4)cc3F)nc12		inconclusive: 37.2 µM [inhibitor, partial curve, poor fit]
O=C1C(SCCO)=C(SCCO)C(=O)c2ccccc21		inconclusive: 3.98 µM [inhibitor, full curve, poor fit]
O=S(=O)(O)CCSSCCS(=O)(=O)O	inactive: -2.88%	

Structure (SMILES)	activity change, negative = inhibition	Potency
CCCCCNC(=O)N1CCC(CN(Cc2ccc(Cl)cc2)Cc2ccc([N+](=O)[O-])s2)C1 (stereo not given)		inconclusive: 23.5 µM [inhibitor, single point]
COc1cccc2c1CCCC2CCCN1CCN(C2CCCCC2)CC1 (stereo not given)		inconclusive: 29.6 µM [inhibitor, single point]
CC(C)(C)Cn1c(N)nc2ccc(-c3[nH]c(C(C)(C)C)nc3-c3ccc(F)cc3)nc21		inconclusive: 37.2 µM [inhibitor, single point]
OC[C@H]1O[C@@H](n2cnc3c2NC=NC[C@@H]3O)C[C@H]1O	inactive: 2.96%	
Nc1ccc(-c2ccc3ncc4ccc(=O)n(-c5cccc(C(F)(F)F)c5)c4c3c2)cn1		active: 0.0418 µM
CC(NCCC(c1ccccc1)c1ccccc1)c1ccccc1 (stereo not given)		inconclusive: 35.5 µM [inhibitor, single point]
CN1CC(=O)N2C(Cc3c([nH]c4ccccc34)[C@H]2c2ccc3c(c2)OCO3)C1=O (stereo not given in full)		inconclusive: 37.2 µM [inhibitor, single point]
CC(C)C[C@@H](C(=O)N[C@H](C(=O)OC1CCCC1)c1ccccc1)[C@H](O)C(=O)NO		inconclusive: 37.2 µM [inhibitor, single point]
COC(=O)C1=C(C)NC(C)=C(C(=O)OCCN2CCN(C(c3ccccc3)c3ccccc3)CC2)C1c1cccc([N+](=O)[O-])c1 (stereo not given)		inconclusive: 35.5 µM [inhibitor, single point]
Cc1cc(OCCCc2c(C(=O)O)n(Cc3cccnc3)c3c(-c4c(COc5ccc(N6CCN([S+](C)(=O)[O-])CC6)cc5)nn(C)c4C)cccc23)cc(C)c1Cl		inconclusive: 33.2 µM [inhibitor, single point]
COc1cccc2c1C(=O)c1c(O)c3c(c(O)c1C2=O)C[C@@](O)(C(=O)CO)C[C@@H]3O[C@H]1C[C@H](N)[C@H](O[C@@H]2CCCCO2)[C@H](C)O1		inconclusive: 2.51 µM [inhibitor, partial curve, poor fit]
CC(C)(C)c1ccc(S(=O)(=O)/C=C/C#N)cc1		inconclusive: 35.5 µM [inhibitor, single point]
CCc1ccc(OCc2ccccc2C(=O)Nc2ccc3nc(C)cc(N)c3c2)cc1		active: 2.96 µM
O=C1/C(=C/c2ccsc2)CC/C1=C\c1cccs1	inactive: -1.82%	
NC[C@@H]1O[C@H](C23CC4CC(CC(C4)C2)C3)Cc2c1ccc(O)c2O		inconclusive: 35.5 µM [inhibitor, single point]
N[C@H](CSC(c1ccccc1)(c1ccccc1)c1ccccc1)C(=O)O	inactive: 6.06%	
O=C(O)CCC(=O)c1ccc(-c2ccccc2)cc1	inactive: 1.76%	
Cc1cccc(Nc2nc(-c3ccncc3)cs2)c1		inconclusive: 37.2 µM [inhibitor, single point]
Nc1ccc(C(=O)Oc2ccccc2)c(O)c1	inactive: 1.03%	
O=C(O)c1cc(=O)c2c(Cl)cc(Cl)cc2[nH]1	inactive: -1.98%	
